{"source": "paper PMC10668032", "note": "Some of the results follow. At the low end of the ranking, values are background and their order means little.", "data": [{"biological_target": "SIX1 homeodomain (reference allele) (UniProt Q15475)", "test": "universal protein binding microarray", "details": "Universal all-10-mer PBM (8x60K, AMADID 030236), 300 nM GST-tagged protein, Alexa Fluor 488 anti-GST; buffer, salt, pH and temperature not stated; high values mean tight binding; most listed sequences are background and not binding sites; double strand, one strand shown", "units": {"binding signal": "E-score"}, "values": [{"sequence": "CCAACTAG", "binding signal": 0.0523}, {"sequence": "ATTGTTGG", "binding signal": -0.197}, {"sequence": "GAAGGTCA", "binding signal": -0.196}, {"sequence": "AATGTATA", "binding signal": 0.259}, {"sequence": "AGCATACC", "binding signal": 0.138}, {"sequence": "TTATTCAA", "binding signal": 0.0246}, {"sequence": "TCGCCCAA", "binding signal": -0.134}, {"sequence": "CGTGCAAG", "binding signal": -0.243}, {"sequence": "ATGGACGC", "binding signal": -0.156}, {"sequence": "AGGTAACA", "binding signal": -0.103}, {"sequence": "CCATGAAA", "binding signal": -0.00907}, {"sequence": "ACGGCCGA", "binding signal": -0.23}, {"sequence": "CCATACCG", "binding signal": 0.0786}, {"sequence": "GTGCCCTA", "binding signal": -0.15}, {"sequence": "TATGTCCA", "binding signal": 0.119}, {"sequence": "GGTTCAAA", "binding signal": -0.0694}, {"sequence": "GGGGACAA", "binding signal": -0.127}, {"sequence": "CCACCCCC", "binding signal": -0.124}, {"sequence": "AGCCACCT", "binding signal": -0.155}, {"sequence": "GACTCTAA", "binding signal": -0.272}, {"sequence": "GTACCCTA", "binding signal": 0.0922}, {"sequence": "CGGACACC", "binding signal": 0.366}, {"sequence": "ATCACCAA", "binding signal": 0.232}, {"sequence": "CAAATGTG", "binding signal": -0.144}, {"sequence": "GATTTAAA", "binding signal": -0.154}, {"sequence": "GCATCTAA", "binding signal": 0.147}, {"sequence": "AAATACCA", "binding signal": 0.0826}, {"sequence": "CCCCGCGC", "binding signal": 0.135}, {"sequence": "TAAAATCA", "binding signal": -0.109}, {"sequence": "CATTCAGG", "binding signal": -0.0745}, {"sequence": "AGCACCTG", "binding signal": -0.0861}, {"sequence": "CCTCATCA", "binding signal": 0.0476}, {"sequence": "CAGTAGTA", "binding signal": 0.154}, {"sequence": "ATCGTATC", "binding signal": 0.441}, {"sequence": "AAAGCAGC", "binding signal": -0.263}, {"sequence": "CAAAGAGG", "binding signal": -0.0816}, {"sequence": "CCCAATTC", "binding signal": 0.115}, {"sequence": "CTGTAGTA", "binding signal": 0.0843}, {"sequence": "ATGCCTAA", "binding signal": -0.0382}, {"sequence": "ACACGGTG", "binding signal": 0.147}, {"sequence": "ATTTGCTG", "binding signal": -0.0863}, {"sequence": "ACGAGAAC", "binding signal": -0.0516}, {"sequence": "AAGTAGAG", "binding signal": -0.161}, {"sequence": "GTTATCCA", "binding signal": 0.144}, {"sequence": "CGAGAATA", "binding signal": 0.213}, {"sequence": "CACCTGAA", "binding signal": 0.124}, {"sequence": "AACACCTT", "binding signal": 0.0499}, {"sequence": "ATGATAGA", "binding signal": 0.0497}, {"sequence": "TATCGTGA", "binding signal": 0.279}, {"sequence": "TATTTGAA", "binding signal": 0.0703}, {"sequence": "ACCCTGTG", "binding signal": 0.129}, {"sequence": "ACCGCTGA", "binding signal": -0.00915}, {"sequence": "ACCTTCTA", "binding signal": 0.00562}, {"sequence": "TCAGGCGA", "binding signal": 0.0326}, {"sequence": "AGGCAACC", "binding signal": -0.121}, {"sequence": "CTTCAGTC", "binding signal": -0.142}, {"sequence": "AAAACCGG", "binding signal": 0.0498}, {"sequence": "ATTATACG", "binding signal": 0.302}, {"sequence": "GCTCGACA", "binding signal": -0.202}, {"sequence": "GCTCGGAA", "binding signal": -0.21}, {"sequence": "CTTCCCAC", "binding signal": -0.0352}, {"sequence": "ACCTCCCG", "binding signal": 0.0126}, {"sequence": "CGCACGAG", "binding signal": 0.031}, {"sequence": "CGAACTAG", "binding signal": 0.093}, {"sequence": "CGCGTGTA", "binding signal": 0.138}, {"sequence": "CTTCCTTA", "binding signal": -0.139}, {"sequence": "GAGGGACC", "binding signal": -0.142}, {"sequence": "ATAAATTG", "binding signal": 0.0219}, {"sequence": "AGTAGTAC", "binding signal": -0.0347}, {"sequence": "GGGATAAC", "binding signal": 0.303}, {"sequence": "GACGTGCA", "binding signal": -0.182}, {"sequence": "AAATATAG", "binding signal": 0.0506}, {"sequence": "CCTTAAAA", "binding signal": -0.243}, {"sequence": "GGTGAGGA", "binding signal": -0.0525}, {"sequence": "ACGTCACT", "binding signal": -0.213}, {"sequence": "ATACGTGA", "binding signal": 0.336}, {"sequence": "ATGGTTCA", "binding signal": 0.14}, {"sequence": "CATTGCGG", "binding signal": 0.222}, {"sequence": "CCGTACCA", "binding signal": 0.0411}, {"sequence": "CGTACCTA", "binding signal": 0.0727}, {"sequence": "AGACACGA", "binding signal": -0.0757}, {"sequence": "GGCGATGA", "binding signal": 0.193}, {"sequence": "CGGATGCA", "binding signal": 0.0793}, {"sequence": "AATACGAG", "binding signal": 0.233}, {"sequence": "CCTAAAGA", "binding signal": -0.065}, {"sequence": "ACAAACAG", "binding signal": -0.126}, {"sequence": "CGTCGTTC", "binding signal": -0.19}, {"sequence": "AGTATGCC", "binding signal": -0.0268}, {"sequence": "CTTCGTCA", "binding signal": -0.0487}, {"sequence": "GGGCCTGA", "binding signal": -0.193}, {"sequence": "GTAGCTTA", "binding signal": 0.0111}, {"sequence": "CCTGCGCC", "binding signal": -0.157}, {"sequence": "GGAATTCC", "binding signal": -0.199}, {"sequence": "ACGTCTAG", "binding signal": 0.00898}, {"sequence": "GCGATAAC", "binding signal": 0.114}, {"sequence": "GCCTACAA", "binding signal": -0.123}, {"sequence": "TCAGGGGA", "binding signal": 0.31}, {"sequence": "TAATCCAA", "binding signal": 0.185}, {"sequence": "ACATACGC", "binding signal": 0.0882}, {"sequence": "CGAATGCC", "binding signal": -0.0542}, {"sequence": "TCGGGGCA", "binding signal": 0.0548}, {"sequence": "GCATGGCA", "binding signal": -0.184}, {"sequence": "AGGAGCGA", "binding signal": -0.0126}, {"sequence": "ACTCGCGG", "binding signal": -0.0701}, {"sequence": "GCGTCGTA", "binding signal": -0.0171}, {"sequence": "CCTTGCAA", "binding signal": -0.181}, {"sequence": "GCCATTAA", "binding signal": -0.0349}, {"sequence": "CGCTATGA", "binding signal": 0.0883}, {"sequence": "GTATATCA", "binding signal": 0.429}, {"sequence": "AAGGATGC", "binding signal": -0.103}, {"sequence": "GAACCAGC", "binding signal": -0.0751}, {"sequence": "GTTGTTAA", "binding signal": -0.149}, {"sequence": "GTTACAAA", "binding signal": -0.0719}, {"sequence": "TTAACTAA", "binding signal": -0.108}, {"sequence": "CCCCACGC", "binding signal": 0.0318}, {"sequence": "ACACGGTA", "binding signal": 0.188}, {"sequence": "ACGTTTTA", "binding signal": -0.0854}, {"sequence": "GCACCACC", "binding signal": -0.0595}, {"sequence": "AAAAAGAC", "binding signal": -0.183}, {"sequence": "CCTCCGTA", "binding signal": 0.0772}, {"sequence": "TAGGGGGA", "binding signal": 0.134}, {"sequence": "CTATGTCA", "binding signal": -0.0989}, {"sequence": "TCAGACCA", "binding signal": -0.0181}, {"sequence": "AATGTGAG", "binding signal": -0.104}, {"sequence": "AACCAGAA", "binding signal": -0.0951}, {"sequence": "GACAGCTC", "binding signal": -0.212}, {"sequence": "ATAGAGAC", "binding signal": -0.0979}, {"sequence": "CTCTAGCA", "binding signal": -0.203}, {"sequence": "ATACCCTG", "binding signal": 0.439}, {"sequence": "CGATCACG", "binding signal": 0.251}, {"sequence": "ACTTATTA", "binding signal": -0.0806}, {"sequence": "AGACATTA", "binding signal": -0.131}, {"sequence": "AGGAGCTA", "binding signal": -0.161}, {"sequence": "GCCCACGC", "binding signal": -0.15}, {"sequence": "GTTCGTAA", "binding signal": -0.101}, {"sequence": "ACTTGAGG", "binding signal": -0.176}, {"sequence": "TGTCTTAA", "binding signal": -0.0867}, {"sequence": "CCGAGCCA", "binding signal": 0.103}, {"sequence": "ACCTTCGG", "binding signal": -0.118}, {"sequence": "TGTAGCAA", "binding signal": -0.203}, {"sequence": "AGGGTGTA", "binding signal": 0.313}, {"sequence": "TAGATGCA", "binding signal": 0.104}, {"sequence": "ACGGACCC", "binding signal": -0.149}, {"sequence": "AGCTCGGA", "binding signal": -0.0978}, {"sequence": "AGTTAACG", "binding signal": -0.109}, {"sequence": "CATAATCA", "binding signal": 0.12}, {"sequence": "CCAGGCGA", "binding signal": 0.0567}, {"sequence": "ACGACCCT", "binding signal": -0.00944}, {"sequence": "TCATACCA", "binding signal": 0.00415}, {"sequence": "ATTTCGCG", "binding signal": -0.159}, {"sequence": "GCATGTAC", "binding signal": -0.0943}, {"sequence": "AGCCGGTA", "binding signal": 0.169}, {"sequence": "AACCGTGC", "binding signal": -0.112}, {"sequence": "AGGTTTTA", "binding signal": -0.129}, {"sequence": "GACTGGAC", "binding signal": -0.267}, {"sequence": "GCCTGGAA", "binding signal": -0.205}, {"sequence": "AGAAGACC", "binding signal": -0.0826}, {"sequence": "CTATTTGC", "binding signal": -0.145}, {"sequence": "AACGCACA", "binding signal": 0.0635}, {"sequence": "AAGCCCTA", "binding signal": -0.202}, {"sequence": "AACCTGTA", "binding signal": -0.0386}, {"sequence": "TATATGAA", "binding signal": -0.0221}, {"sequence": "AAGCCTGC", "binding signal": -0.294}, {"sequence": "AATTACTC", "binding signal": -0.178}, {"sequence": "AGTATAAG", "binding signal": 0.161}, {"sequence": "AGTGCGGG", "binding signal": 0.0463}, {"sequence": "CGCGGGAC", "binding signal": -0.117}, {"sequence": "ATCGTCTA", "binding signal": 0.261}, {"sequence": "CCGTCACG", "binding signal": -0.165}, {"sequence": "CTGCTTGC", "binding signal": -0.245}, {"sequence": "AATGTGTG", "binding signal": -0.127}, {"sequence": "CTTGAGCA", "binding signal": -0.141}]}]}
